Several values for one entry are separate records, joined by “and”; a condition that tells them apart may be missing. Equal entries are not always repeated. The inconclusive results got no clear call from the source; some entries with a clear call stand among them for comparison. For some assays here: Potencies beside an inconclusive call are fits to weak or partial responses and may not hold up. Activity calls are given as the source filed them. Unless noted, calls come from the whole dose curve; as a rule, active = well fitted curve in the direction sought with a large enough effect in the repeat runs; inconclusive = weak or mixed curves; inactive = no such curve, though single readings can be large; an effect the other way counts as inactive or inconclusive.
Experiments:
[1] = qHTS assay to identify small molecule antagonists of the estrogen related receptor (ERR) signaling pathway from Tox21 library - cell viability counter screen (AID 1224834); note: nearly all actives have a fitted effect of over 30% in size; note: potency is the fitted concentration of half-maximal effect
Procedure, shortened: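 Viability readout (CellTiter-Fluor fluorescence, 30 min at 37 C) multiplexed with the ERR assay; cells treated 17.5 h at 37 C with compounds delivered in DMSO.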

[2] = qHTS assay to identify small molecule antagonists of the constitutive androstane receptor (CAR) signaling pathway - cell viability counter screen (AID 1224837); note: nearly all actives have a fitted effect of over 45% in size; note: potency is the fitted concentration of half-maximal effect
Procedure, shortened: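 Fluorescence from CellTiter-Fluor served as the viability signal. Human hepatoma HepG2 cells stably bearing hCAR and CYP2B6-2.2kb received compound plus CITCO (50 nM final) for 23 hr.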

[3] = qHTS assay to identify small molecule agonists of the constitutive androstane receptor (CAR) signaling pathway - cell viability counter screen (AID 1224836); note: potency is the fitted concentration of half-maximal effect; nearly all actives have a fitted effect of over 45% in size
Procedure, shortened: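 Cells were seeded and incubated 4 hrs. Compounds were added across 15 concentrations together with PK11195 at 0.75 uM final. Plates were incubated 23 hrs at 37 C. CellTiter-Fluor was added and fluorescence measured.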

[4] = qHTS assay to identify small molecule antagonists of the estrogen related receptor signaling pathway with the pleiotropic PPARgamma coactivator (PGC) from Tox21 10K library - cell viability counter screen (AID 1224840; active = well fitted cell-killing curve with a large enough effect in the repeat runs, not every such curve was filed as active; inconclusive = weak or mixed curves, or effect the other way; inactive = no such curve, though single readings can be large or run the other way; note: potency is the fitted concentration of half-maximal effect; nearly all actives have a fitted effect of over 40% in size)
Procedure, shortened: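 Compounds in DMSO, alongside positive and negative controls, were pinned onto PGC/ERR cells (2,000 per well). Exposure lasted 17.5 hours at 37 C, followed by a 30-minute CellTiter-Fluor incubation and fluorescence reading.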

[5] = qHTS assay to identify small molecule antagonists of the estrogen related receptor signaling pathway with the pleiotropic PPARgamma coactivator (PGC) from Tox21 10K library (AID 1224841; call rule not given here; note: potency is the fitted concentration of half-maximal effect; actives are mostly falling curves and most rising ones were filed inactive; nearly all actives have a fitted effect of over 50% in size)
Procedure, shortened: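 Compound exposure ran 18 hours at 37 C in PGC/ERR cells (2,000/well) that had first rested 6 hours in a 37 C/5% CO2 incubator. Luciferase activity was then detected with One-Glo after a 30-minute room-temperature step.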

[6] = qHTS assay to identify small molecule agonists of the hypoxia (HIF-1) signaling pathway - cell viability counter screen (AID 1224844; calls by dose curve; note: potency is the fitted concentration of half-maximal effect; nearly all actives have a fitted effect of over 50% in size)
Procedure, shortened: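 Luminescent ATP content (CellTiter-Glo, 30 min, room temperature) served as the viability measure in HRE-bla ME-180 cells exposed to compounds for 17 hrs in low-serum medium (0.5% dialyzed FBS).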

[7] = target: Nuclear receptor subfamily 1 group I member 3 (Homo sapiens) (UniProt Q14994); experiment: qHTS assay to identify small molecule agonists of the constitutive androstane receptor (CAR) signaling pathway (AID 1224839); note: potency is the fitted concentration of half-maximal effect; nearly all actives have a fitted effect of over 15% in size
Chain of UniProt Q14994 (Q14994 whole entry, looked up): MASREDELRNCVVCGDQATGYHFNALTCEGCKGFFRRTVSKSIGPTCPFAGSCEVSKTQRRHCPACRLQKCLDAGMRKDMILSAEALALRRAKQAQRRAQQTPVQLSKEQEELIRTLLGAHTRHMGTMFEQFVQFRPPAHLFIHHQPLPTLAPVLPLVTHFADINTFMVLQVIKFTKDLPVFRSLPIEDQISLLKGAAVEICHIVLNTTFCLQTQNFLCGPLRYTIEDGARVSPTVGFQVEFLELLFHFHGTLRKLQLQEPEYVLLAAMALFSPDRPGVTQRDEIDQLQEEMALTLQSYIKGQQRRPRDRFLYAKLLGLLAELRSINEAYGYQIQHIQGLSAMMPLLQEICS
Procedure, shortened: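 Cells were plated and incubated 4 hrs, then dosed with compounds at 15 concentrations. PK11195 was added to 0.75 uM final. After 24 hrs at 37 C, luciferase luminescence was measured.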

[8] = qHTS assay to identify small molecule agonists of H2AX (AID 1224845; active = well fitted activation curve with a large enough effect in the signal ratio in the repeat runs, not every such curve was filed as active; inconclusive = weak or mixed curves; the % refers to the signal ratio; note: potency is the fitted concentration of half-maximal effect); conditions: CHO-K1 phospho-H2AX Ser139 HTRF, 3 h; activation (H2AX phosphorylation): at 154 µM (top of the series) unless noted
Procedure, shortened: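 Wild-type CHO-K1 cells, plated overnight, exposed 3hr at 37C to 15 concentrations (0.76% DMSO final). Lysed, then HTRF anti-pH2AX (S139) cryptate and anti-H2AX-d2 antibodies, 24 hr room temperature; 665/620 nm emission read.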

[9] = qHTS assay to identify small molecule agonists of the hypoxia (HIF-1) signaling pathway (AID 1224846; active = well fitted activation curve with a large enough effect in the signal ratio in the repeat runs, not every such curve was filed as active; inconclusive = weak or mixed curves; the % refers to the signal ratio; note: potency is the fitted concentration of half-maximal effect); conditions: HRE-bla ME-180 cells, beta-lactamase ratio, 17 h; activation: at 76.8 µM (top of the series) unless noted
Procedure, shortened: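 Measured by blue/green FRET after loading CCF4-AM: beta-lactamase expressed from a hypoxia response element in ME-180 cells. Test agents were delivered in DMSO and left 17 hrs; cells had been plated 5 hrs earlier in low-serum (0.5% dialyzed FBS) medium.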

[10] = qHTS RealTime-Glo MT Cell Viability Assay in HEK293 cells - 32 hour (AID 1224868); note: nearly all actives have a fitted effect of over 50% in size; note: potency is the fitted concentration of half-maximal effect
Procedure, shortened: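 Nonlytic real-time viability readout: viable cells convert prosubstrate to NanoLuc substrate, giving luminescence proportional to live cell number. HEK293, 600 cells/well, compound added after 5 h, continuous culture at 37 C.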

[11] = target: Thyrotropin receptor (Homo sapiens) (UniProt P16473); experiment: qHTS assay to identify small molecule agonists of the thyroid stimulating hormone receptor (TSHR) signaling pathway (AID 1224843; calls by dose curve; note: nearly all actives have a fitted effect of over 45% in size; note: potency is the fitted concentration of half-maximal effect; for activation: % is set by controls: 0 for no effect and ±100 for the full control effect); conditions: TSHR-HEK293 cells, cAMP HTRF, agonist mode, 30 min; activation: at 92.4 µM (top of the series) unless noted
Chain of UniProt P16473 (P16473 whole entry, looked up): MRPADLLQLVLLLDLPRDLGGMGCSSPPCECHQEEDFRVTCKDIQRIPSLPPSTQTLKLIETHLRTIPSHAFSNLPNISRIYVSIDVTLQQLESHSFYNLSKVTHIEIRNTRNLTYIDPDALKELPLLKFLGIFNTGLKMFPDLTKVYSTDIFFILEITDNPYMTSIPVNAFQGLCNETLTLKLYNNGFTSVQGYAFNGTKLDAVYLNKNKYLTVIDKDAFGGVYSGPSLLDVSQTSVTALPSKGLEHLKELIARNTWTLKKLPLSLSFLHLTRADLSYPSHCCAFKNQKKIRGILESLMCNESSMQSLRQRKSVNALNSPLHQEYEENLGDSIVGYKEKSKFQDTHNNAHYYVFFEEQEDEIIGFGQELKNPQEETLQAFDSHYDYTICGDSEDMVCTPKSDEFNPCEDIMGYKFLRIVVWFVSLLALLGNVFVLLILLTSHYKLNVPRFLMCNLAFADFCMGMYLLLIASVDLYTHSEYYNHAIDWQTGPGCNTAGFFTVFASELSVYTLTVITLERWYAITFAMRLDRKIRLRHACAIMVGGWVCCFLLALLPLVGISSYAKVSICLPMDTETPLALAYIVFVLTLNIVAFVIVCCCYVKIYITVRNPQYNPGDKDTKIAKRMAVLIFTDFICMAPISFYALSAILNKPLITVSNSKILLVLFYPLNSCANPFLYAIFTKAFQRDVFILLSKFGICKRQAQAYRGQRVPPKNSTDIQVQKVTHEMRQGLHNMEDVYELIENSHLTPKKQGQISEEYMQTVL
Procedure, shortened: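 TSHR-HEK293 cells in agonist mode, 30 min room-temperature step, then cAMP measured by competitive HTRF (cAMP-d2 with anti-cAMP cryptate) after 1 h at room temperature. Tested at 15 concentrations in triplicate.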

[12] = qHTS assay to identify small molecule antagonists of the estrogen related receptor (ERR) signaling pathway from Tox21 library (AID 1224848); note: potency is the fitted concentration of half-maximal effect; nearly all actives have a fitted effect of over 50% in size
Procedure, shortened: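 ERR reporter cell line (from NTP) seeded 2,000 cells/well, rested 6 h at 37 C/5% CO2, then pin-dosed with compounds in DMSO. After 18 h at 37 C, ONE-Glo added; luminescence read after 30 min at room temperature.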

[13] = target: Luciferin 4-monooxygenase (Photinus pyralis) (UniProt P08659); experiment: qHTS assay to identify small molecule inhibitors of firefly luciferase (AID 1224835); note: nearly all actives have a fitted effect of over 25% in size; note: potency is the fitted concentration of half-maximal effect
Chain of UniProt P08659 (P08659 whole entry, looked up): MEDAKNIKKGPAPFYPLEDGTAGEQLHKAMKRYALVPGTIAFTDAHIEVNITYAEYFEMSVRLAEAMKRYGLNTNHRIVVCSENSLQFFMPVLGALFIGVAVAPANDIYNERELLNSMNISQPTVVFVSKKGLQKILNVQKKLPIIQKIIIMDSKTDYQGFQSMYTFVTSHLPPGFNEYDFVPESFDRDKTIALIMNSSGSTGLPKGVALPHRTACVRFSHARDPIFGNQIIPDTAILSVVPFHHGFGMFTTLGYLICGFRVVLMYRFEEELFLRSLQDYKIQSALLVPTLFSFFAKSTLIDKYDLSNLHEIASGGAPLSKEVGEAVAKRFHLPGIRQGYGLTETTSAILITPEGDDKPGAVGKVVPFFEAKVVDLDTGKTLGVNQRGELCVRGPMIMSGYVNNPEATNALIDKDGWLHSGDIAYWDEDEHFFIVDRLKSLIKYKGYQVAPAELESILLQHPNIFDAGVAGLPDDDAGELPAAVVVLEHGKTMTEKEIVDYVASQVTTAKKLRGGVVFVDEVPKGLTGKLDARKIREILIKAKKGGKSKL
Procedure, shortened: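 Biochemical qHTS: compounds run as interplate titrations against purified firefly enzyme, with D-luciferin and ATP each at its KM concentration. Light output recorded by CCD imaging.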

[14] = A CellTox Green Cytotoxicity Assay to monitor cytotoxicity in HEK293 cells - 0 hour (AID 1224869)
Procedure, shortened: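 Each value comes from one timepoint of a single continuous run in which HEK293 cells with CellTox Green were exposed to compound for up to 40 h at 37 C, dye fluorescence rising with cell death.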

[15] = target: Nuclear receptor subfamily 1 group I member 3 (Homo sapiens) (UniProt Q14994); experiment: qHTS assay to identify small molecule antagonists of the constitutive androstane receptor (CAR) signaling pathway (AID 1224838);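 note: HepG2 cells stably expressing hCAR with CYP2B6 luciferase reporter stimulated by CITCO; potency is the fitted concentration of half-maximal effect; nearly all actives have a fitted effect of over 40% in size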
Procedure, shortened: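 Quantitative HTS in double-stable HepG2-CYP2B6-hCAR cells. After 4 h plating, cells get compound (15 concentrations) and CITCO at 50 nM final, incubate 24 h at 37 C, then ONE-Glo luminescence is read.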

[16] = qHTS assay to identify small molecule agonists of H2AX - cell viability counter screen (AID 1224847; calls by dose curve; note: potency is the fitted concentration of half-maximal effect; nearly all actives have a fitted effect of over 30% in size)
Procedure, shortened: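 Cytotoxicity counter screen in wild-type CHO-K1 cells: a 3 hr compound treatment at 37C across 15 concentrations, followed by CellTiter-Glo luminescence to gauge viable cells.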
Tags give direction and shape of the fitted curve or compound fluorescence and quenching.

CC(C(=O)O)c1cccc(Oc2ccccc2)c1 (centres undefined)
inactive: Potency [1] | Potency [2]

CCCCNC(=S)NCCCC
inconclusive: Potency [1] 68.6 µM [cytotoxic, single point] | Potency [3] 68.6 µM [cytotoxic, single point] | Potency [4] 68.6 µM [cytotoxic, single point] | Potency [5] 68.6 µM [falling, single point] | Potency [6] 49 µM [cytotoxic, single point]

Cc1c(Cl)c(=O)oc2cc(O)ccc12
active: Potency [10] 43.6 µM
inconclusive: Potency [1] 54.5 µM [rising, partial curve] | Potency [2] 54.5 µM [rising, partial curve] | Potency [7] 54.5 µM [activator, partial curve] | Potency [4] 54.5 µM [rising, partial curve] | Potency [8] 127 µM [fluorescent, single point] | Potency [9] 43.6 µM [fluorescent, partial curve]

CC(C)(c1ccc(Oc2ccc(N)cc2)cc1)c1ccc(Oc2ccc(N)cc2)cc1
active: Potency [11] 27.3 µM | Potency [6] 24.5 µM
inconclusive: Potency [1] 68.6 µM [cytotoxic, partial curve] | Potency [2] 61.1 µM [cytotoxic] | Potency [7] 15.4 µM [activator, partial curve] | Potency [4] 68.6 µM [cytotoxic, single point] | Potency [8] 8.98 µM [rising, partial curve] | Potency [9] 21.9 µM [falling, full curve] | Potency [10] 24.5 µM [cytotoxic, partial curve]

CC(C)CC(=O)C1C(=O)c2ccccc2C1=O
inconclusive: Potency [2] 68.6 µM [cytotoxic, partial curve, poor fit] | Potency [7] 54.5 µM [activator, partial curve, poor fit] | Potency [4] 43.3 µM [cytotoxic, partial curve] | Potency [8] 8 µM [falling, full curve, poor fit]
active: Potency [1] 38.6 µM | Potency [12] 30.6 µM

CC1=CC(=O)NS(=O)(=O)O1
inconclusive: Potency [1] 68.7 µM [cytotoxic, single point] | Potency [2] 54.6 µM [cytotoxic, partial curve] | Potency [4] 68.7 µM [cytotoxic, partial curve, poor fit] | activation [11] -32.5%

N[C@@H](CCC(=O)Nc1ccc([N+](=O)[O-])cc1)C(=O)O
inconclusive: Potency [1] 15.4 µM [cytotoxic, full curve] | Potency [2] 48.6 µM [cytotoxic, partial curve, poor fit]

C[C@@H]1O[C@@H](O[C@@H]2[C@@H](O)[C@H](OCCc3ccc(O)c(O)c3)O[C@H](CO[C@@H]3O[C@H](CO)[C@@H](O)[C@H](O)[C@H]3O)[C@H]2OC(=O)/C=C/c2ccc(O)c(O)c2)[C@H](O)[C@H](O)[C@H]1O
inconclusive: Potency [1] 29.6 µM [cytotoxic, partial curve] | Potency [13] 68.7 µM [inhibitor, partial curve] | activation [11] -8.83% | Potency [8] 48.9 µM [cytotoxic, partial curve] | Potency [10] 47.4 µM [cytotoxic, partial curve, poor fit]

Nc1ccc(F)c([N+](=O)[O-])c1
inconclusive: Potency [1] 43.3 µM [cytotoxic, partial curve]
inactive: Potency [13] | Potency [10] | Potency [14]

CCOC(=O)CC(=O)C(=O)OCC
inconclusive: Potency [1] 61.1 µM [cytotoxic, partial curve] | Potency [3] 68.6 µM [cytotoxic, single point] | Potency [2] 68.6 µM [cytotoxic, single point] | Potency [15] 68.6 µM [inhibitor, single point] | Potency [6] 6.17 µM [cytotoxic, partial curve, poor fit] | Potency [16] 127 µM [cytotoxic, single point]
active: Potency [5] 54.5 µM | Potency [10] 49 µM

O=C(O)c1cc(O)c(O)c(O)c1
inconclusive: Potency [1] 23.7 µM [cytotoxic, partial curve] | Potency [3] 69.2 µM [cytotoxic] | Potency [2] 55 µM [cytotoxic, partial curve, poor fit] | activation [11] 19.2% | Potency [8] 45.4 µM [cytotoxic, partial curve] and 24.7 µM [cytotoxic, partial curve] | Potency [16] 114 µM [cytotoxic] | Potency [10] 49.4 µM [cytotoxic, partial curve, poor fit]

From PubChem BioAssay (Tox21)
